Assay results taken from PubChem BioAssay AID504845 (National Center for Advancing Translational Sciences (NCATS), 2011).
In all, about 390,000 compounds went through this assay and about 150 (0.038%) were called active. The inconclusive results got no clear call from the source; some entries with a clear call stand among them for comparison. Calls come from the whole dose curve; as a rule, active = well fitted inhibition curve with a large enough effect; inconclusive = small, poorly fitted or top-dose-only effect; inactive = no such curve, though single readings can be large or run the other way. Where the call is inconclusive, the potency comes from a doubtful curve fit.

What follows are compounds tested against Regulator of G-protein signaling 4 (Homo sapiens) (UniProt P49798) (assay: Inhibitors of Regulator of G Protein Signaling (RGS) 4: qHTS). Settings: Transcreener GDP fluorescence polarization, RGS4-accelerated GTP hydrolysis; series mostly up to 114 µM; activity change, negative = inhibition: at the top concentration.
UniProt P49798, sequence (P49798 whole entry, looked up): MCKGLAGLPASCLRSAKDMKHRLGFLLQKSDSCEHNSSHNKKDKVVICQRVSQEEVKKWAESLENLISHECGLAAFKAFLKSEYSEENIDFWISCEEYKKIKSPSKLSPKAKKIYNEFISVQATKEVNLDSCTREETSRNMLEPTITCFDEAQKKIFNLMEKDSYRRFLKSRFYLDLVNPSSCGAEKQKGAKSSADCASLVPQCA
Procedure, shortened: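 MLSMR compounds (23 nl, pin-transferred) preincubated 10 min at room temperature with a 500nM (2x) first reagent, then RGS4 at 900nM (2x) plus Transcreener GDP mix added; fluorescence polarization (620/688 nm) read before and after 90 min at 30 °C.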
% is set by controls: 0 for no effect and ±100 for the full control effect; potency is the fitted concentration of half-maximal effect; tags give direction and shape of the fitted curve.
Note: nearly all actives have a fitted effect of over 75% in size.

| Compound | activity change, negative = inhibition | Potency |
| --- | --- | --- |
| CC(O)CNCCOc1ccccc1-c1ccccc1 (configuration not stated) | inactive: 19% | – |
| COC(=O)c1c(NC(=O)C(C)C)sc2c1C(C(=O)OC)CC2 (configuration not stated) | inactive: 0.111% | – |
| Cc1[nH]c(-c2ccccn2)nc(=S)c1Cl | inactive: -10% | – |
| COc1ccc(S(=O)(=O)N2CCC3(CC2)OCCN3S(=O)(=O)c2c(C)cc(C)cc2C)cc1 | inactive: -31.8% | – |
| O=C(NCCS(=O)(=O)N1CCN(c2cccc(Cl)c2)CC1)c1ccc2c(c1)OCO2 | inactive: 2.87% | – |
| COc1ccc(N(Cc2cc(=O)[nH]c3ccccc23)C(=O)CCl)cc1 | inactive: -12.5% [at 56.9 µM] | – |
| Nc1cc(N2CCOCC2)c(Cl)cc1[N+](=O)[O-] | inactive: 29% | – |
| Cc1ccc(-c2nc3ccccc3s2)cc1NC(=S)NC(=O)/C=C/c1ccco1 | – | inconclusive: 79.4 µM [inhibitor, single point] |
| Cc1sc2ncnc(N/N=C/c3ccc(O)cc3)c2c1C | inactive: -27% | – |
| CCS(=O)(=O)NCCc1sc2nc(-c3ccc(OC)cc3)nn2c1C | inactive: 2.84% | – |
| COc1ccc(/C(=N\O)c2ncc(C(F)(F)F)cc2Cl)cc1 | – | inconclusive: 89.1 µM [inhibitor, single point] |
| CCOc1ccc(N2CC(c3nc4ccccc4n3CCOc3ccc(OC)cc3)CC2=O)cc1 (configuration not stated) | – | inconclusive: 89.1 µM [inhibitor, single point] |
| CC(C)Cc1nn2cc(-c3cccc(Br)c3)nc2s1 | inactive: -2.5% | – |
| COc1ccc(CC(=O)OCn2nnc3ccccc3c2=O)cc1 | inactive: -22.2% | – |
| COc1ccc(N2COC3c4cccc5cccc(c45)C32)cc1 (configuration not stated) | – | inconclusive: 50.1 µM [inhibitor, partial curve, poor fit] |
| NC(=O)c1cc(N)ccc1N1CCCC1 | – | inconclusive: 79.4 µM [inhibitor, partial curve, poor fit] |
| O=C(CCS(=O)(=O)c1ccccc1)N(Cc1cccnc1)c1nc2c(F)cccc2s1 | – | inconclusive: 50.1 µM [inhibitor, partial curve, poor fit] |
| CC1=C(C(=O)Nc2ccccc2)C2(CCCCC2)C(C#N)=C(S)N1 | – | inconclusive: 50.1 µM [inhibitor, partial curve, poor fit] |
| O=C1OC(c2ccc3ccccc3c2O)(c2ccc3ccccc3c2O)c2ccccc21 | – | inconclusive: 28.2 µM [inhibitor, full curve, poor fit] |
| COc1ccccc1NC(=O)Cc1nnc(SCC(=O)Nc2ccccc2F)n1C | – | inconclusive: 20 µM [inhibitor, full curve, poor fit] |
| CC(=O)NC(c1ccco1)c1cc(F)c2cccnc2c1O (configuration not stated) | inactive: -0.344% | – |
| COc1ccc(/C=C/c2nc(C#N)c(N3CCC(C(N)=O)CC3)o2)cc1OC | inactive: -8.11% | – |
